Values marked as one replicate rest on one cluster of the flow cell; about a third of the high ones do not repeat.
test system: ATP; assay: switch fluorescence ratio, 500 uM ATP over buffer (Cy3 cluster intensity, sum of 5 cycles each) (fold (ratio)); higher = stronger signal-on switching upon ATP binding; sequences stand for … in TCGTCGGCAGCGTCAGATGTGTATAAGAGACAGTTTTTTTTTTTTTTTTTTTTTTTTT…TC; settings: aptamer strand: ATP DNA aptamer (quencher-CACCTGGGGGAGTATTGCGGAGGAAGG + anchor), 100 nM annealed; ATP concentration: 500 uM; one replicate
Procedure, shortened: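 Imaging in selection buffer was followed by imaging after 15 min with 500 uM ATP at 22 °C, for Cy3-labelled switching-strand clusters annealed to 100 nM quencher-labelled ATP aptamer on a modified Illumina MiSeq flow-cell. Five of these buffer/ATP cycles ran, separated by NaOH stripping and re-annealing. The fluorescence ratio per cluster is summed target-cycle over summed buffer-cycle Cy3 intensity, averaged per switch-domain sequence; clusters outside 100-1000 RFU were removed.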
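Further: ATP exposure 15 min at 22 °C before imaging.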

Sequence | switch fluorescence ratio
CCTCAAAGGA | 3.06
CCTCATTAGG | 1.01
CCTCCATCAA | 1.53
CCTCCCCGGT | 3.98
CCTCCCGTTA | 5.98
CCTCCGAACG | 2.45
CCTCCGCTAG | 1.12
CCTCCTGGA | 1.03
CCTCCTTCCC | 1.94
CCTCCTTTCG | 1.41
CCTCGAGAAG | 1.2
CCTCGAGATT | 1.36
CCTCGAGCGG | 2.07
CCTCGCTCAG | 2.97
CCTCGGGGTG | 1.17
CCTCGGGTCA | 1.21
CCTCTTCAGA | 1.19
CCTGAATGCA | 1.07
CCTGACTGTA | 1.26
CCTGAGGCCG | 1.16
CCTGAGTCCC | 1.68
CCTGAGTTGG | 1.02
CCTGAGTTGT | 0.996
CCTGCACACG | 1.48
CCTGCACGAG | 1.31
CCTGCCCTT | 1.02

Sequence | switch fluorescence ratio
CCTGCTGTA | 1.01
CCTGCTTAGG | 0.972
CCTGGAAATG | 1.14
CCTGGACATC | 1.1
CCTGGAGGAG | 1.12
CCTGGATAAG | 1.05
CCTGGCCGTG | 1.06
CCTGGGCCAA | 2.05
CCTGGGCGAG | 1.11
CCTGGGGATG | 1.02
CCTGGGTTGC | 1.05
CCTGGTAGGC | 1.07
CCTGGTTGTA | 0.963
CCTGTAGCGG | 1.34
CCTGTATAC | 3.34
CCTGTCCGTC | 1.04
CCTGTCGAAT | 1.03
CCTGTCTAGA | 0.971
CCTGTCTCAC | 1.05
CCTGTGAAGA | 1.01
CCTGTTCTTT | 0.988
CCTGTTGTAC | 1.99
CCTTACGCTG | 1.24
CCTTATAACG | 1.01
CCTTATATAG | 1.08
CCTTATCCAT | 0.998

Sequence | switch fluorescence ratio
CCTTCCGACG | 1.11
CCTTCCGAGT | 4.05
CCTTCGGCTT | 1.58
CCTTCGTCAG | 4.96
CCTTGCCCC | 1.17
CCTTGCGTCT | 1.17
CCTTGGCAGG | 1.52
CCTTGGGATG | 0.991
CCTTGGTCAC | 1.16
CCTTGTGCCG | 1.07
CCTTTAGAGA | 0.989
CCTTTAGGCG | 1.24
CCTTTATCTG | 1.06
CCTTTATGA | 0.969
CCTTTCAGTG | 1.04
CCTTTTATGC | 1.29
CCTTTTGGGA | 0.968
CCTTTTGTTC | 1.35
CGAAACTTGT | 0.978
CGAAACTTTT | 1.04
CGAAAGGCGT | 1.01
CGAAAGGTGT | 1.16
CGAAATGTTA | 0.977
CGAAATTA | 1.04
CGAACGTCGG | 1.01

From the supplement of paper PMC10126150
